Measured values from the supplement of paper PMC10126150.
Values marked as one replicate rest on one cluster of the flow cell; about a third of the high ones do not repeat.

These sequences were tested on ATP (assay: switch fluorescence ratio, 500 uM ATP over buffer (Cy3 cluster intensity, sum of 5 cycles each) (fold (ratio)); higher = stronger signal-on switching upon ATP binding; sequences stand for … in TCGTCGGCAGCGTCAGATGTGTATAAGAGACAGTTTTTTTTTTTTTTTTTTTTTTTTT…TC). Settings: aptamer strand: ATP DNA aptamer (quencher-CACCTGGGGGAGTATTGCGGAGGAAGG + anchor), 100 nM annealed; ATP concentration: 500 uM; one replicate.
In short: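 Cy3-labelled switching-strand clusters on a modified Illumina MiSeq flow-cell were annealed to 100 nM quencher-labelled ATP aptamer, imaged in selection buffer, then imaged after 15 min with 500 uM ATP at 22 °C. Five buffer/ATP cycles ran, with NaOH stripping and re-annealing between them. The fluorescence ratio is summed target-cycle over summed buffer-cycle Cy3 intensity per cluster, averaged per switch-domain sequence. Clusters outside 100-1000 RFU were excluded.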
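Further: ATP exposure 15 min at 22 °C before imaging.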

| Sequence | switch fluorescence ratio |
| --- | --- |
| GAACATTAGT | 1.11 |
| GAACCAGGGC | 1.01 |
| GAACCCCAGC | 1.27 |
| GAACCGGAAG | 1.08 |
| GAACCGTGCT | 0.967 |
| GAACCGTTTG | 1.04 |
| GAACCTATA | 1.02 |
| GAACCTGGGG | 1.06 |
| GAACCTTGGG | 0.988 |
| GAACGAATTT | 1.02 |
| GAACGACCTT | 1.2 |
| GAACGCGCAT | 1.02 |
| GAACGCTCTT | 1.04 |
| GAACGGCTC | 0.996 |
| GAACGGCTGC | 0.979 |
| GAACGTCCTT | 1.06 |
| GAACGTTGTT | 1 |
| GAACTAAACA | 1.04 |
| GAACTAAACG | 1.02 |
| GAACTAGCGG | 1.02 |
| GAACTAGGG | 0.963 |
| GAACTCTGTG | 0.97 |
| GAAGAGGAGA | 0.984 |
| GAAGAGTATG | 0.938 |
| GAAGCACTGC | 1.42 |
| GAAGCAGCCA | 1.1 |

| Sequence | switch fluorescence ratio |
| --- | --- |
| GAAGCATGCA | 1.01 |
| GAAGCATTTA | 1.19 |
| GAAGCCAAGC | 1.16 |
| GAAGCGCCTC | 1.05 |
| GAAGCGGCTG | 1.08 |
| GAAGCTATGT | 1.05 |
| GAAGGGATAA | 1.06 |
| GAAGTAGTCT | 0.972 |
| GAAGTCATTG | 1 |
| GAAGTCGACG | 1.11 |
| GAAGTCGATA | 1.11 |
| GAAGTCTCCG | 1.04 |
| GAAGTCTGCG | 0.96 |
| GAAGTGTAGT | 1 |
| GAAGTTCGGT | 1.07 |
| GAAGTTCTAG | 0.995 |
| GAAGTTCTCA | 1.04 |
| GAATAACTGT | 0.989 |
| GAATAAGTTG | 1.04 |
| GAATAATCCA | 1.02 |
| GAATACCGCA | 1.49 |
| GAATATATTA | 1.04 |
| GAATATCAGG | 1.02 |
| GAATATTACG | 1.01 |
| GAATATTAGT | 1 |
| GAATATTCAC | 0.996 |

| Sequence | switch fluorescence ratio |
| --- | --- |
| GAATATTCTG | 0.974 |
| GAATATTGAC | 1.05 |
| GAATCAAATA | 0.97 |
| GAATCAACGG | 1.04 |
| GAATCGCGGC | 0.959 |
| GAATCGGGC | 1.04 |
| GAATCGGGTT | 0.976 |
| GAATCGTGTA | 0.96 |
| GAATCTTCAT | 1.01 |
| GAATGAGGCG | 0.974 |
| GAATGCCTGG | 0.974 |
| GAATGGAGAT | 0.983 |
| GAATGGAGTT | 0.964 |
| GAATGGCGGT | 0.998 |
| GAATGTAATG | 1 |
| GAATGTGTTG | 0.925 |
| GAATTAAAGG | 0.987 |
| GAATTAGAAC | 1.02 |
| GAATTATATG | 1.01 |
| GAATTGAAAT | 0.986 |
| GAATTGAGTA | 0.995 |
| GAATTGCATG | 0.999 |
| GAATTGGTT | 1.02 |
| GAATTGGTTA | 0.989 |
| GAATTTCTTA | 0.967 |
| GACAAAATCG | 1.02 |

| Sequence | switch fluorescence ratio |
| --- | --- |
| GACAAATTGG | 0.995 |
| GACAACCTGT | 0.987 |
| GACAACGGGG | 1.04 |
| GACAAGAGTG | 1 |
| GACAATACCA | 1.2 |
| GACAATTGGC | 0.968 |
| GACACGAAAG | 0.972 |
| GACACGT | 1.01 |
| GACACGTGCA | 0.979 |
| GACACTCCCC | 2.62 |
| GACAGCGATT | 1.21 |
| GACAGCTAAC | 2.1 |
| GACAGGGCTA | 1.08 |
| GACAGTATT | 0.994 |
| GACAGTATTC | 1.05 |
| GACAGTCCGG | 1.08 |
| GACAGTTATC | 1.04 |
| GACATACAAG | 1.09 |
| GACATGAAAC | 1.02 |
| GACATGTGAA | 1.04 |
| GACATTAGTG | 0.999 |
| GACCAACGGT | 0.955 |
| GACCACCGTA | 1.11 |
| GACCAGCCCG | 1.05 |
| GACCCACAAA | 1.24 |
| GACCCAGTAT | 1.09 |

| Sequence | switch fluorescence ratio |
| --- | --- |
| GACCCCGGTA | 1.23 |
| GACCCTAGGT | 1.11 |
| GACCCTCCCT | 1.1 |
| GACCCTTTGA | 0.965 |
| GACCGAACCA | 1.24 |
| GACCGACAAG | 1.04 |
| GACCGATCC | 1.85 |
| GACCGATTTG | 1.01 |
| GACCGGCTTA | 1.03 |
| GACCGGTTTG | 0.995 |
| GACCGTTTGC | 1.08 |
| GACCTATAGA | 1 |
| GACCTATATG | 1.02 |
| GACGAACTTT | 1.21 |
| GACGAAGGTA | 1.02 |
| GACGACAGAT | 1.14 |
| GACGACCGGA | 1.13 |
| GACGACTCGT | 1 |
| GACGACTCTA | 1.51 |
| GACGAGCGAG | 1.05 |
| GACGAGTACT | 1.15 |
| GACGATATTG | 0.963 |
| GACGATCCGG | 0.988 |
| GACGATTGGC | 0.977 |
| GACGCATGGG | 1.06 |
| GACGCCAAGT | 1.07 |

| Sequence | switch fluorescence ratio |
| --- | --- |
| GACGCGTCTA | 1 |
| GACGCTGCGG | 0.989 |
| GACGGAAAGC | 1.88 |
| GACGGAGATC | 0.986 |
| GACGGATTAT | 0.979 |
| GACGGCAAA | 0.967 |
| GACGGCTGAA | 1.01 |
| GACGGGCAA | 1.71 |
| GACGGGTATG | 1.02 |
| GACGGGTCAT | 0.934 |
| GACGGGTGTG | 0.988 |
| GACGGTACAT | 1.31 |
| GACGGTATAG | 1.01 |
| GACGTCCGTT | 0.989 |
| GACGTCTTGG | 0.997 |
| GACGTGGCAG | 1.01 |
| GACGTTGTAA | 1.04 |
| GACTAATGGG | 1.06 |
| GACTACCGAA | 1.05 |
| GACTACGT | 0.992 |
| GACTACTAAA | 1.2 |
| GACTATGCCA | 1.01 |
| GACTATGCCC | 1.07 |
| GACTCAAATA | 1.05 |
| GACTCAGAAA | 1.28 |
| GACTCCAAGC | 1.46 |

| Sequence | switch fluorescence ratio |
| --- | --- |
| GACTCCCGAT | 3.39 |
| GACTCCCTAG | 0.99 |
| GACTCGTC | 1.03 |
| GACTCTAACT | 1.05 |
| GACTGCATCA | 1.08 |
| GACTGCGATG | 1.03 |
| GACTGGCATG | 0.97 |
| GACTGTCATA | 1.02 |
| GACTGTGCTA | 1.12 |
| GACTGTGTTC | 1.01 |
| GACTGTTTTG | 1.01 |
| GACTTACGGA | 1.49 |
| GACTTATATG | 0.994 |
| GACTTATATT | 0.992 |
| GACTTGGAAC | 0.993 |
| GACTTGGCTA | 1.04 |
| GACTTTTTCC | 1.09 |
| GAGAAACCAT | 0.944 |
| GAGAAGTAAC | 0.998 |
| GAGAAGTAGG | 1.01 |
| GAGAATAATT | 0.962 |
| GAGAATTTGC | 1.04 |
| GAGACGAGGG | 1.05 |
| GAGACGGGAG | 0.979 |
| GAGACTCTG | 1.04 |
| GAGAGAAACG | 0.907 |

| Sequence | switch fluorescence ratio |
| --- | --- |
| GAGAGACGT | 0.973 |
| GAGAGATTCA | 1.02 |
| GAGAGCCCGC | 1.04 |
| GAGAGCGAAG | 1.05 |
| GAGAGCGACG | 0.991 |
| GAGAGGAAGC | 0.963 |
| GAGAGGTTGG | 1.01 |
| GAGAGTTAGA | 1.01 |
| GAGATCTCGG | 0.985 |
| GAGATCTGCA | 0.964 |
| GAGATTCTTT | 0.985 |
| GAGATTTAA | 0.991 |
| GAGCAACGTG | 1.07 |
| GAGCATAACT | 1.42 |
| GAGCATCCCG | 1.04 |
| GAGCCAGTCG | 1.04 |
| GAGCCGCTAT | 1.19 |
| GAGCCTCACT | 1.04 |
| GAGCCTTCA | 1.32 |
